# The full ranking holds about 33,000 sequences; the median of “E-score (-0.5 to 0.5)” is about -0.013, and the highest 2% start at about 0.3. The list shows a part of the results.
# Biological target: T1, Msn1 (UniProt P22148)
# T1 sequence: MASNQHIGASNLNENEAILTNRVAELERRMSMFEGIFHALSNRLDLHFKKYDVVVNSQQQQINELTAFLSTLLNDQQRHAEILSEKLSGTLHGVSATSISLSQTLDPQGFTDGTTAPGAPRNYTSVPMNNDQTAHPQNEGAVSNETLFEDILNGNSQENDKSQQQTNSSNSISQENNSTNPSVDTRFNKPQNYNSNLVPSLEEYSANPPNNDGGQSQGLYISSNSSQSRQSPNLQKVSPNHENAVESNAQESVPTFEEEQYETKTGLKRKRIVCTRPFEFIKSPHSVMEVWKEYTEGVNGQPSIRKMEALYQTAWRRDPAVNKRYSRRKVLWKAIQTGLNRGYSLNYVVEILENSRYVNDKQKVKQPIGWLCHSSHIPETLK
# Test: PBM E-score (8-mer binding enrichment) (E-score (-0.5 to 0.5)); higher = stronger / more preferred TF binding; most listed sequences are background and not binding sites
# Conditions: protein concentration: 200 nM; construct: GST-full length
# Protocol: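 Universal 'all 10-mer' protein binding microarrays (Agilent AMADID 015681) probed with GST-tagged S. cerevisiae TFs (full-length or DBD) made by in vitro transcription/translation (PURExpress), about 100-200 nM. Bound TF was detected with fluorescent anti-GST. Each ungapped 8-mer (which stands for itself and its reverse complement) is scored by the PBM enrichment score (E-score), a modified Wilcoxon-Mann-Whitney statistic from -0.5 to +0.5, computed with the Universal PBM Analysis Suite. Scale: above 0.35 generally sequence-specific binding.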
row,Sequence,PBM E-score
1,CACTTCCA,-0.0388
2,AGCGCCTC,-0.194
3,AGTCGTGG,0.0444
4,GAACAAAC,0.181
5,ATACACAC,0.0243
6,AACATCAC,0.0812
7,GGAATCGA,-0.0979
8,TTACAGAA,0.0602
9,GTATCACA,0.109
10,CACGGTTA,0.0138
11,CAAATTCC,0.265
12,CCATAGAA,-0.0137
13,CAAAGGGA,-0.0316
14,TGCGTTAA,-0.0213
15,AGTACCAA,0.175
16,CCGGGCCC,-0.103
17,AGCACGTC,0.125
18,ACGGCGGA,-0.0934
19,CTTGACTC,-0.0921
20,ACTTACGG,0.0817
21,ATGAGGCC,-0.333
22,GCTGTGGA,0.0167
23,AAATGGCC,-0.0844
24,ACAGACGG,-0.138
25,AGCCGATA,-0.0688

row,Sequence,PBM E-score
1,GGTCTGAA,0.0803
2,TGATCTAA,0.00017
3,GTAGAAAA,0.172
4,GAATCGCC,-0.293
5,TTGGTAAA,-0.0902
6,CCCGTGAA,0.00561
7,AGGCTTCC,-0.0153
8,CGGATGTA,0.0259
9,AGGAGGCA,-0.295
10,CATAGGTC,0.0822
11,GGGCCCCA,-0.317
12,AGAAGCCC,-0.295
13,CGCAGACG,0.0312
14,ATCCTGCA,0.0555
15,AGTCCTCA,0.202
16,CAAGTACG,0.0164
17,ATTGAATG,0.101
18,GACCGATC,-0.0571
19,AAGGTCCA,-0.0265
20,GTGTTGAA,-0.0141
21,CCGCGCAG,0.108
22,CCGTATCG,-0.0414
23,GGGCCACA,-0.153
24,CCGTCGTC,-0.1
25,ATTCGCGC,0.0908

row,Sequence,PBM E-score
1,CGCTTAAC,0.132
2,CAGACGAG,-0.0297
3,CCCTACTC,-0.0505
4,AGTGACAC,0.225
5,AATCTACA,0.058
6,CCCCCTTA,-0.404
7,AGCTTGAC,-0.0883
8,GAATCACA,-0.123
9,AAAGCTCT,-0.114
10,AACCTATC,0.0159
11,AGCGGAGG,-0.217
12,CTTGGCTC,-0.228
13,AGATACCG,0.0533
14,ACGTAGGC,-0.0908
15,GGCGTTAC,-0.266
16,ACCTTAGG,-0.201
17,ACGAAGGG,-0.12
18,CCGTCACA,-0.121
19,TACTTTCA,0.11
20,CTTACATA,-0.0116
21,CAATCGTC,0.0432
22,CTAATCGA,0.0391
23,ACTCTGAA,0.0886
24,AATACCGA,0.022
25,CGTGACTA,-0.054

row,Sequence,PBM E-score
1,CAATGCAG,-0.0326
2,CTTACAGA,0.013
3,AGCGCAGC,-0.115
4,AGATAAGA,0.159
5,CCCGATGA,0.132
6,TATGGCGA,-0.162
7,ATAGAGAA,0.0764
8,ACAGGCAC,-0.227
9,CAGTCAAA,-0.00344
10,CGCATAGA,0.0575
11,CACTTGAA,0.179
12,AAACGCTT,-0.0136
13,TCTTAACA,0.0991
14,AGTTAACC,-0.0919
15,AGGAGCAT,0.0181
16,CGAGACGC,0.0344
17,AATACATT,0.152
18,AAGCGTGT,-0.0464
19,AGTTGTTA,0.195
20,ATCCGCCG,0.163
21,AGCCAGTG,-0.0204
22,TCGGGTCA,0.213
23,CGCTATAA,-0.0164
24,AGTACTAT,0.11
25,CCAAATGC,-0.0167

row,Sequence,PBM E-score
1,ATTACTCA,0.0602
2,ACTATGCC,-0.0678
3,AACACTCT,-0.0785
4,CCCTGCGG,-0.258
5,AAAAGTGG,0.12
6,ACAATGTC,0.452
7,CCTATGAG,-0.0887
8,AAGACGTC,-0.00027
9,AAAAACGC,0.122
10,AGATGACG,-0.00302
11,AGAGCGAC,0.0642
12,AACTGTCA,0.158
13,ACCTGCAG,-0.129
14,AGTTGCGA,0.00126
15,AGCTAGTC,-0.0933
16,CATCTCGC,-0.0978
17,CCCTCGAG,-0.11
18,ACCCTTGA,-0.194
19,ACAGTGTA,0.0175
20,ACAATGCG,-0.0228
21,GAGTTGCC,-0.0596
22,TAAAGTGA,0.0769
23,ACTCCAAG,-0.125
24,ACGGTAAA,0.0303
25,GTCTAGCA,0.108

row,Sequence,PBM E-score
1,TTTGCAAA,0.04
2,TCACGTCA,0.031
3,GAAGTGCA,-0.07
4,AGTGGGGC,-0.434
5,GCCCTAGC,-0.136
6,CATATTTA,0.232
7,GCGGTCAA,0.157
8,CCGCGGTC,-0.125
9,AAGATAAT,0.0866
10,CGAGCATC,-0.112
11,AGCCGTAC,-0.022
12,AGAACGAA,0.134
13,TCTGGGCA,-0.122
14,ACAAACAG,0.276
15,AGCCGACT,-0.0873
16,CGCGCCGA,0.105
17,CCCGGCCA,-0.18
18,GATAAGAA,0.14
19,TGAAGACA,0.328
20,CAACTAAG,-0.197
21,GCTGCGCC,-0.192
22,CAAGTCTC,-0.0227
23,CAGCTGCA,-0.181
24,TTACGTAA,0.0547
25,AGCCCTTC,-0.317

row,Sequence,PBM E-score
1,ACGTCCAC,0.2
2,AAAGGTAT,0.0611
3,AGCAGTCG,-0.146
4,ACCGAAAT,0.205
5,AGCCACCC,-0.224
6,AGCATAAA,-0.102
7,GAACCAAA,-0.0792
8,CGGATACC,0.0244
9,ACCTAAGC,-0.00657
10,CGTTCTCC,-0.072
11,AGATCAGA,-0.0985
12,AGTAGGAC,0.268
13,ACGTTAAG,0.0909
14,ACTGATAG,-0.0146
15,TGCCACCA,-0.305
16,AGAAGCAC,-0.172
17,ATCTAACG,-0.111
18,GGTGCTCA,-0.183
19,AATCTAGA,0.121
20,CGGACCGC,0.0155
21,TACTATCA,0.206
22,CATATACC,0.00804
